We go through 60 compounds from PubChem BioAssay AID1159614 (National Center for Advancing Translational Sciences (NCATS), 2016).

SMILES strings stand for the structures. The whole screen tested about 45,000 compounds, of which about 65 (0.1%) were called active. Calls come from the whole dose curve; as a rule, active = well fitted activation curve with a large enough effect; inconclusive = small, poorly fitted or top-dose-only effect; inactive = no such curve, though single readings can be large or run the other way. The list shows a part of the results.

Sequence of UniProt P54803 (P54803 whole entry, looked up): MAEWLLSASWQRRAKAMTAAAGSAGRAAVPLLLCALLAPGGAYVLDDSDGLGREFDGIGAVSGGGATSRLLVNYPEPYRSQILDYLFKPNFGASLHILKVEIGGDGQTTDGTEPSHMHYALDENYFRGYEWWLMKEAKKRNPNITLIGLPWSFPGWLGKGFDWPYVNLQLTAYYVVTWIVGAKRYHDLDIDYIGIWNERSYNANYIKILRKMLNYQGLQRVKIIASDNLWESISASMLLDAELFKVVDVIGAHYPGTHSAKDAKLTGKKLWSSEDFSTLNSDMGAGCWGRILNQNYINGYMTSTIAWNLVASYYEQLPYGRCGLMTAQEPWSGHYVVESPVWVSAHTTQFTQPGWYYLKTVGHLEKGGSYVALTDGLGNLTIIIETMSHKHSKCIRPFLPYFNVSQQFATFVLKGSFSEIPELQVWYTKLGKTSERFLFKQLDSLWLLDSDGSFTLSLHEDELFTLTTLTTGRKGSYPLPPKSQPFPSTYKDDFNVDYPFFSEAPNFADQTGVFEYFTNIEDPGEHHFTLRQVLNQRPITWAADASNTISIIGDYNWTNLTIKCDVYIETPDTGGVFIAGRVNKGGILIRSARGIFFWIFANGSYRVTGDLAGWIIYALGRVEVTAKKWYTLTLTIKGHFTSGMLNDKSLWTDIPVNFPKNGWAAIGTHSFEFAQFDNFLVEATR

This assay has as its target Galactocerebrosidase (Homo sapiens) (UniProt P54803). The experiment in a line: A Novel Cell-Based Assay to Identify Small Molecules for B -Galactocerebrosidase. Note: 0% is about no effect; nearly all actives have a fitted effect of over 65% in size. As to conditions: 145M-Twi-hGALC-G270D cells (Twitcher mouse brain line with human GALC G270D), HMU-beta-Gal fluorescence, 48 h; series mostly up to 57.5 µM; activation: at the top concentration. The method in brief:
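Mutant human GALC (G270D), stably expressed in a Twitcher mouse brain cell line lacking endogenous GALC, is measured in live-treated cells via 6-hexadecanoylamino-4-methylumbelliferyl-β-galactoside hydrolysis (0.1 mM final, pH 5.2) with fluorescent detection.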
As for `CCOC(=O)c1cc(-c2ccccc2)n(CC(=O)Nc2ccc(CC)cc2)c1C`, the “activation” value is inactive: -14.8%.

With `CC(C)(C)C(=O)OCc1cc(=O)n2nc(C3CC3)sc2n1`, the “activation” value was inactive: -9.61%.

As to `COc1ccc(C)cc1NC(=O)COCc1cc(-c2ccc(F)cc2)on1`, the “activation” value was inactive: -5.75%.

Regarding `CC1(C)O[C@@H]2[C@@H](CO[C@@]3(COS(N)(=O)=O)OC(C)(C)O[C@@H]23)O1`, the “activation” value is inactive: -10.6%.

On to `Cc1cccc(S(=O)(=O)c2cn(C)c3cc(N4CCN(c5ccc(F)cc5)CC4)c(F)cc3c2=O)c1`, for which the “activation” value was inactive: -28.6%.

As for `COc1ccc(OC)c(CCNC(=O)CCn2c(=O)c3cccn3c3ccc(F)cc32)c1`, the “activation” value is inactive: -10%.

Take `CC[N+](CC)(CC(=O)Nc1c(C)cccc1C)Cc1ccccc1`: the “activation” value is inactive: -16.1%.

For the compound `CC(C)c1ccc(NC(=O)CSC2=Nc3ccccc3C3=NC(CCC(=O)NCc4ccco4)C(=O)N23)cc1` (stereo not given), the “activation” value was inactive: 0.718%.

As to `COc1cc(NS(=O)(=O)c2ccc(N)cc2)nc(OC)n1`, the “activation” value was inactive: -1.71%.

Consider `O=C(CSc1nc(=O)n(Cc2ccco2)c2c1CCC2)Nc1ccccc1C(F)(F)F`, for which the “activation” value is inactive: 3.36%.

Consider `Cc1ccc2c(=O)cc(C(=O)Nc3ccc(S(=O)(=O)N4CCCCCC4)cc3)oc2c1`, for which the “activation” value was inactive: 0.106%.

As to `CCCCNC(=O)c1ccccc1NC(=O)CN(c1ccccc1)S(=O)(=O)N(C)C`, the “activation” value was inactive: 1.4%.

For the compound `Cc1ccc(CN2CCSc3ccc(C(=O)Nc4ccc(C)cc4)cc32)cc1`, the “activation” value is inactive: -8.63%.

For the compound `CC(=O)N1CCCc2cc(S(=O)(=O)N3CCC(C(=O)NCc4ccccc4)CC3)ccc21`, the “activation” value was inactive: -20.4%.

In the case of `CCc1nnc(SCC(=O)N(CC)c2ccccc2)c2cc3oc(C)cc3n12`, the “activation” value is inactive: -7.73%.

Regarding `CCc1ccc(NC(=O)C2CCCN(S(=O)(=O)c3ccc(F)cc3)C2)cc1` (stereo not given), the “activation” value was inactive: -30.6%.

As for `CCOC(=O)CNC(c1ccccc1)c1cc(Br)ccc1NC(=O)c1cccc(Cl)c1` (stereo not given), the “activation” value is inactive: -9.68%.

For `Cc1ccc(Cl)cc1N1CCN(C(=O)c2cc(S(=O)(=O)N3CCCC3)c[nH]2)CC1`, the “activation” value is inactive: 10.7%.

Consider `CCN(Cc1ccccc1)C(=O)Cn1c(=O)n(-c2ccc(Cl)cc2)c(=O)c2c(C)c(C)sc21`, for which the “activation” value is inactive: -14.2%.

`Cc1ccc(C)c(Cn2c(=O)n(-c3ccc(Cl)cc3)c(=O)c3c(C)c(C)sc32)c1`: the “activation” value is inactive: -10.1%.

Consider `COc1ccc(CC(=O)NCC(c2ccc(Cl)cc2)N2CCOCC2)cc1` (stereo not given), for which the “activation” value was inactive: -8.66%.

As for `Cc1ccc(Cn2c(=O)n(Cc3ccco3)c(=O)c3oc4ccccc4c32)cc1`, the “activation” value was inactive: -4.71%.

In the case of `Cc1ccc(C)c(NC(=O)CSc2nc3c([nH]c4ccccc43)c(=O)n2-c2ccc(F)cc2)c1`, the “activation” value is inactive: -14.8%.

Regarding `CCOc1ccc(OCC)c(NC(=O)c2cnc(SC)nc2-c2ccccc2)c1`, the “activation” value is inactive: -3.96%.

In the case of `Cc1ccc(Cc2cn3cc(-c4ccccc4)nc3s2)cc1`, the “activation” value was inactive: -0.836%.

For the compound `Cc1ccc(C)c(Oc2nc3c(c(=O)n(C)c(=O)n3C)n2Cc2ccccc2)c1`, the “activation” value was inactive: -8.74%.

For the compound `CN(C)S(=O)(=O)c1ccc2c(c1)nnn2CCNC(=O)Nc1ccc(Cl)cc1`, the “activation” value is inactive: -8.59%.

Regarding `Cc1ccc(S(=O)(=O)c2nnn3c2nc(NC2CCCCC2)c2sccc23)cc1`, the “activation” value was inactive: -1.66%.

Regarding `COc1cc(NC(=O)C2=CC(c3ccco3)=NS(=O)(=O)N2C)cc(OC)c1OC`, the “activation” value was inactive: -12.1%.

As to `O=C(COc1ccc(F)cc1)Nc1ccccc1C(=O)OCc1cc(=O)n2ccsc2n1`, the “activation” value is inactive: -6.72%.

Turning to `CCCCn1c(=O)c2oc3ccccc3c2n(Cc2ccccc2C)c1=O`, the “activation” value was inactive: 3.34%.

Turning to `CCOC(=O)c1[nH]c2c(c1Cc1ccccc1OC)C(=O)CC(c1ccccc1)C2` (stereo not given), the “activation” value was inactive: -25.9%.

For `CCCSCCCNC(=O)CN1C(=O)COc2ccc(S(=O)(=O)N3CCCC3)cc21`, the “activation” value was inactive: -8.47%.

Take `Cc1ccc(C)c(N2CCN(C(=O)c3ccc4c(=O)n(CCc5ccccc5)c(=O)[nH]c4c3)CC2)c1`: the “activation” value was inactive: -11.1%.

For the compound `COCCc1nn2c(=O)cc(COC(=O)c3ccccc3C)nc2s1`, the “activation” value was inactive: -22.2%.

Take `Cc1nc(-c2ccccc2)sc1CCNC(=O)C(=O)Nc1ccc(F)c(Cl)c1`: the “activation” value is inactive: -12%.

In the case of `NC(=O)c1ccccc1NC(=O)CN1c2ccccc2S(=O)(=O)c2ccccc21`, the “activation” value is inactive: -22.3%.

`COc1ccc(Cl)cc1C(=O)NCc1nnnn1-c1ccccc1`: the “activation” value was inactive: -7.46%.

As to `COc1nnc(-c2ccc(N3CCCCC3)c(NC(=O)c3ccccc3Cl)c2)c2ccccc12`, the “activation” value is inactive: -18.9%.

Turning to `O=C(Nc1sc2c(c1C(=O)NCc1ccccc1)CCCC2)c1cc(=O)c2ccccc2o1`, the “activation” value was inactive: -13.1%.

Consider `CCc1ccc(NC(=O)C(=O)NCC(c2cccnc2)N2CCc3ccccc3C2)cc1` (stereo not given), for which the “activation” value is inactive: -16.1%.

Consider `COCc1cc(C)nc2c1C(=O)NC(c1ccc(Br)cc1)N2Cc1ccccc1` (stereo not given), for which the “activation” value was inactive: -8%.

As to `COC(=O)c1c(NC(=O)COc2ccc(Cl)cc2)sc(C)c1C`, the “activation” value is inactive: -7.67%.

As to `COc1cccc(N2CCN(C(=O)Cn3nc(C)n4c(cc5c(OC)cccc54)c3=O)CC2)c1`, the “activation” value is inactive: -8.55%.

For `CCc1ccc(-n2nnc(-c3nc(-c4ccc(C)cc4)no3)c2N)cc1`, the “activation” value is inactive: -20.8%.

For the compound `COc1cc(Cl)c(C)cc1NC(=O)Cn1c2ncccc2c(=O)n1-c1ccccc1`, the “activation” value is inactive: -19.9%.

On to `CCc1ccc(NC(=O)CSc2nc3c(c(=O)[nH]2)CN(Cc2ccc(C)cc2)CC3)cc1`, for which the “activation” value was inactive: -15.5%.

As for `CCOc1ccccc1C(=O)NCC(c1cccs1)S(=O)(=O)c1ccc(F)c(C)c1` (stereo not given), the “activation” value is inactive: -9.25%.

For `O=C(NCc1ccc(Cl)cc1)C1CCN(c2ncnc3c2nc2n3CCCCC2)CC1`, the “activation” value was inactive: -6.08%.

`COc1ccc(Cn2c(=O)n(-c3ccc(OC)cc3)c(=O)c3c2c2cc(OC)ccc2n3C)cc1`: the “activation” value was inactive: -17.8%.

For the compound `CCOC(=O)c1noc2ncnc(N3CCN(c4cccc(C(F)(F)F)c4)CC3)c12`, the “activation” value was inactive: 0.837%.

For `CC1CCN(C(=O)Cn2cc(SCC(=O)Nc3ccccc3)c3ccccc32)CC1`, the “activation” value was inactive: -6.01%.

Consider `COc1cccc(-c2nc(SCC(=O)NCc3ccco3)c3c(=O)n(C)c(=O)n(C)c3n2)c1`, for which the “activation” value was inactive: -15.1%.

On to `COc1ccc(-n2c(SCc3ccccc3F)nc3c([nH]c4ccccc43)c2=O)cc1OC`, for which the “activation” value is inactive: -3.01%.

With `COc1cc(NC(=O)c2c3c(nc4ccccc24)C(=O)N(C2CCCCC2)C3)cc(OC)c1`, the “activation” value was inactive: -15.4%.

As for `CCOC(=O)c1c(-c2ccc(C)cc2)csc1NC(=O)c1cc(=O)c2cc(C)cc(C)c2o1`, the “activation” value is inactive: -23%.

As to `O=C(CSc1c2c(nc3cc(Cl)ccc13)CCCC2)N1CCN(c2ccccc2)CC1`, the “activation” value was inactive: -16.5%.

Take `CCN(CC)S(=O)(=O)c1ccc2c(c1)c(=O)c(C(=O)NCc1ccccc1Cl)cn2C`: the “activation” value is inactive: -2.84%.

On to `COc1ccc(-c2cc(C)no2)cc1S(=O)(=O)NCc1ccco1`, for which the “activation” value was inactive: -3.82%.

On to `CC(=O)c1ccc(NC(=O)C2=CC(c3ccc(C)cc3)=NS(=O)(=O)N2C)cc1`, for which the “activation” value was inactive: -14.4%.
